{"source": "patent US7547818B2", "about": "“Metaphase donor cells for effective nuclear reprogramming in mammals” (The University of Georgia research Foundation, Inc., priority 2000, dated 2009)", "key": {"[1]": {"test_system": "pig oocytes", "experiment": "Arrest of oocytes in MI during in vitro maturation", "assay_type": "cell-based"}, "[2]": {"test_system": "bovine granulosa cells", "experiment": "Cell cycle phases by flow cytometry (propidium iodide DNA content) after cell cycle inhibitors", "assay_type": "cell-based", "details": "for percentage of cells in G2/M / percentage of cells in Late G1 / percentage of cells in S: 26 hours, replicates; for percentage of cells in G2/M, averaged / percentage of cells in Late G1, averaged / percentage of cells in S, averaged: average of the two replicates in table 4"}, "[3]": {"test_system": "pig ear fibroblasts", "experiment": "Cell cycle phases by flow cytometry (propidium iodide DNA content) after cell cycle inhibitors", "assay_type": "cell-based", "details": "for percentage of cells in G2/M / percentage of cells in Late G1 / percentage of cells in S: 26 hours; for percentage of cells in G2/M, averaged / percentage of cells in Late G1, averaged / percentage of cells in S, averaged: average of the two replicates in table 5"}, "[4]": {"test_system": "transferred bovine NT blastocysts", "experiment": "Embryo transfer and fetal development of NT embryos in recipient females"}, "[5]": {"test_system": "bovine NT embryos derived from granulosa cells", "experiment": "In vitro development of NT embryos from roscovitine treated donor cells", "details": "donor granulosa cells treated with 15 μM roscovitine; day seven"}, "[6]": {"test_system": "bovine somatic cells", "experiment": "Arrest of bovine somatic cells in metaphase by nocodazole, Hoechst staining", "assay_type": "cell-based", "details": "for Percentage of bovine somatic cells in culture arrested: 200 observed"}, "[7]": {"details": "transferred blastocysts derived from roscovitine treated cells"}}, "note": "“And” between values parts separate entries of the source, which are not always exact repeats. Equal values may be shown once. Marks after values point to notes of the source that are not given here."}
{"smiles": "C=C1[C@@H](C)[C@H]2[C@H](Cc3ccccc3)NC(=O)[C@]23OC(=O)/C=C/[C@H](O)CCC[C@@H](C)C/C=C/[C@H]3[C@@H]1O", "note": "[Cyt B, cytochalasin B]", "values": [{"measurement": "Proportions of pig oocytes reaching MI", "setting": "[1]; Cyt B 1 μg/ml 24-29 hours, examined 29 hours after onset of IVM", "result": "85.6 ± 7.6%^a (85)"}, {"measurement": "Proportions of pig oocytes reaching MI", "setting": "[1]; Cyt B 1 μg/ml 30-35 hours, examined 35 hours after onset of IVM", "result": "50.4 ± 9.7%^b (94)"}, {"measurement": "Proportions of pig oocytes reaching MI", "setting": "[1]; Cyt B 7.5 μg/ml 24-29 hours, examined 29 hours after onset of IVM", "result": "84.6 ± 6.1%^a (88)"}, {"measurement": "Proportions of pig oocytes reaching MI", "setting": "[1]; Cyt B 7.5 μg/ml 30-35 hours, examined 35 hours after onset of IVM", "result": "59.0 ± 2.4%^b (92)"}, {"measurement": "Proportion of oocytes at M I phase in comparison to control oocytes", "setting": "[1]; at 29 hours after IVM", "result": "did not significantly increase"}, {"measurement": "Arresting oocytes at M I phase", "setting": "[1]; treatment between 30 and 35 hours after IVM", "result": "not effective"}]}
{"smiles": "Cn1cnc2c(NCc3ccccc3)nc(NCCO)nc21", "note": "[Olo, olomoucine]", "values": [{"measurement": "percentage of cells in G2/M", "setting": "[2]; 100 μM", "result": "10.10% and 8.49%"}, {"measurement": "percentage of cells in Late G1", "setting": "[2]; 100 μM", "result": "68.70% and 67.73%"}, {"measurement": "percentage of cells in S", "setting": "[2]; 100 μM", "result": "9.07% and 7.58%"}, {"measurement": "percentage of cells in G2/M, averaged", "setting": "[2]; 100 μM", "result": 9.30, "unit": "%"}, {"measurement": "percentage of cells in Late G1, averaged", "setting": "[2]; 100 μM", "result": 68.22, "unit": "%"}, {"measurement": "percentage of cells in S, averaged", "setting": "[2]; 100 μM", "result": 8.33, "unit": "%"}, {"measurement": "percentage of cells in G2/M", "setting": "[3]; 100 μM", "result": 8.21, "unit": "%"}, {"measurement": "percentage of cells in G2/M, averaged", "setting": "[3]; 100 μM", "result": 8.21, "unit": "%"}]}
{"smiles": "CC[C@H](CO)Nc1nc(NCc2ccccc2)c2ncn(C(C)C)c2n1", "note": "[Ros, roscovitine]", "values": [{"measurement": "cells in late G1 phase", "setting": "[2]; 15 μM roscovitine for 24 hours, p<0.05 vs serum starved and controls", "result": "82.4±0.2", "unit": "%"}, {"measurement": "percentage of cells in G2-M phase", "setting": "[2]; 15 μM roscovitine for 24 hours, p<0.05 vs serum-starved and controls", "result": "9.5±0.1", "unit": "%"}, {"measurement": "percentage of cells in G2/M", "setting": "[2]; 15 μM", "result": "16.29% and 16.97%"}, {"measurement": "percentage of cells in Late G1", "setting": "[2]; 15 μM", "result": "79.78% and 79.05%"}, {"measurement": "percentage of cells in S", "setting": "[2]; 15 μM", "result": "3.90% and 4.14%"}, {"measurement": "percentage of cells in G2/M, averaged", "setting": "[2]; 15 μM", "result": 16.63, "unit": "%"}, {"measurement": "percentage of cells in Late G1, averaged", "setting": "[2]; 15 μM", "result": 79.42, "unit": "%"}, {"measurement": "percentage of cells in S, averaged", "setting": "[2]; 15 μM", "result": 4.02, "unit": "%"}, {"measurement": "percentage of cells in G2/M", "setting": "[2]; 30 μM", "result": "14.41% and 14.42%"}, {"measurement": "percentage of cells in Late G1", "setting": "[2]; 30 μM", "result": "79.08% and 77.85%"}, {"measurement": "percentage of cells in S", "setting": "[2]; 30 μM", "result": "3.90% and 4.38%"}, {"measurement": "percentage of cells in G2/M, averaged", "setting": "[2]; 30 μM", "result": 14.42, "unit": "%"}, {"measurement": "percentage of cells in Late G1, averaged", "setting": "[2]; 30 μM", "result": 78.47, "unit": "%"}, {"measurement": "percentage of cells in S, averaged", "setting": "[2]; 30 μM", "result": 4.14, "unit": "%"}, {"measurement": "Arresting cells in late G1, comparison of inhibitors", "setting": "[2]; bovine granulosa cells and pig ear fibroblasts, tables 4-7", "result": "superior to olomoucine"}, {"measurement": "Calves born", "setting": "[4]; NT embryos produced using roscovitine arrested donor cells", "result": "Two living genetically identical calves"}, {"measurement": "development rate beyond 200 days", "setting": "[4]; roscovitine group, p<0.05 vs serum-starved group", "result": "12.5±2.0", "unit": "%"}, {"measurement": "fetal developmental rate to 30-70 days", "setting": "[4]; [7]", "result": "27.8±2.7", "unit": "%"}, {"measurement": "fetal developmental rate to 190 days", "setting": "[4]; [7]", "result": "12.5±2.0", "unit": "%"}, {"measurement": "percentage of cells in G2/M", "setting": "[3]; 15 μM, replicates", "result": "23.37% and 23.80%"}, {"measurement": "percentage of cells in Late G1", "setting": "[3]; 15 μM, replicates", "result": "61.63% and 60.68%"}, {"measurement": "percentage of cells in S", "setting": "[3]; 15 μM, replicates", "result": "15.73% and 15.87%"}, {"measurement": "percentage of cells in G2/M, averaged", "setting": "[3]; 15 μM", "result": 23.59, "unit": "%"}, {"measurement": "percentage of cells in Late G1, averaged", "setting": "[3]; 15 μM", "result": 61.16, "unit": "%"}, {"measurement": "percentage of cells in S, averaged", "setting": "[3]; 15 μM", "result": 15.80, "unit": "%"}, {"measurement": "percentage of cells in G2/M", "setting": "[3]; 30 μM, replicates", "result": "17.13% and 17.83%"}, {"measurement": "percentage of cells in Late G1", "setting": "[3]; 30 μM, replicates", "result": "69.67% and 68.49%"}, {"measurement": "percentage of cells in S", "setting": "[3]; 30 μM, replicates", "result": "13.01% and 12.85%"}, {"measurement": "percentage of cells in G2/M, averaged", "setting": "[3]; 30 μM", "result": 17.48, "unit": "%"}, {"measurement": "percentage of cells in Late G1, averaged", "setting": "[3]; 30 μM", "result": 69.08, "unit": "%"}, {"measurement": "percentage of cells in S, averaged", "setting": "[3]; 30 μM", "result": 12.93, "unit": "%"}, {"measurement": "Blastocyst formation rate of NT embryos", "setting": "[5]", "result": "12.9±0.5", "unit": "%"}, {"measurement": "Cleavage rate of NT embryos", "setting": "[5]", "result": "54.3±1.8", "unit": "%"}]}
{"smiles": "COC(=O)Nc1nc2ccc(C(=O)c3cccs3)cc2[nH]1", "note": "[nocodazole]", "values": [{"measurement": "Percentage of bovine somatic cells in culture arrested", "setting": "[6]; nocodazole 0.3 ug/ml, exposure 3 hours", "result": 10, "unit": "%"}, {"measurement": "Percentage of bovine somatic cells in culture arrested", "setting": "[6]; nocodazole 0.3 ug/ml, exposure 10 hours", "result": 26, "unit": "%"}, {"measurement": "Percentage of bovine somatic cells in culture arrested", "setting": "[6]; nocodazole 1.0 ug/ml, exposure 3 hours", "result": 8, "unit": "%"}, {"measurement": "Percentage of bovine somatic cells in culture arrested", "setting": "[6]; nocodazole 1.0 ug/ml, exposure 10 hours", "result": 25, "unit": "%"}, {"measurement": "Percentage of bovine somatic cells in culture arrested", "setting": "[6]; nocodazole 3 ug/ml, exposure 3 hours", "result": 9, "unit": "%"}, {"measurement": "Percentage of bovine somatic cells in culture arrested", "setting": "[6]; nocodazole 3 ug/ml, exposure 10 hours", "result": 27, "unit": "%"}, {"measurement": "Reversibility of nocodazole arrest of somatic cells", "setting": "[6]; preliminary experiments, removal of nocodazole", "result": "reversible"}]}
